Data from the supplement of paper PMC11876631.
± gives the standard deviation of the averaged measurements. Laboratory Escherichia coli strains with one amino-acid change in an essential protein, pooled on minimal glucose agar with carbenicillin or gentamicin at twice the control MIC (plus kanamycin and chloramphenicol for the plasmids), 48 h. Fold change of barcode share against drug-free plates; higher = less susceptible. Active = above 20 in both replicates (the paper's putatively resistant). '<' = one read or none on drug, '>' = one read or none on a drug-free plate. Shares are relative, so most strains fall below 1 when a few take over. Listed are strains with at least 15 reads on both drug-free plates, and hits; most hits rest on fewer reference reads. Replicate rank correlation about 0.5. Edits are read from barcodes.

The proteins below were run against Escherichia coli (laboratory strain) (assay: barcode share on antibiotic plates over drug-free plates; higher = less susceptible). Conditions: antibiotic: gentamicin; 2× MIC (MIC 0.45 µg/mL).
Description: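 A pool of E. coli strains, each edited to carry one amino-acid change in an essential protein, was grown for 48 h on minimal glucose agar with or without antibiotic; strain barcodes were sequenced; mean of two replicates.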

Protein | fold change of barcode share
obgE V201P (protein) MKFVDEASILVVAGDGGNGCVSFRREKYIPKGGPDGGDGGDGGDVWMEADENLNTLIDYRFEKSFRAERGQNGASRDCTGKRGKDVTIKVPVGTRVIDQGTGETMGDMTKHGQRLLVAKGGWHGLGNTRFKSSVNRTPRQKTNGTPGDKRELLLELMLLADVGMLGMPNAGKSTFIRAVSAAKPKVADYPFTTLVPSLGVPRMDNEKSFVVADIPGLIEGAAEGAGLGIRFLKHLERCRVLLHLIDIDPIDGTDPVENARIIISELEKYSQDLATKPRWLVFNKIDLLDKVEAEEKAKAIAEALGWEDKYYLISAASGLGVKDLCWDVMTFIIENPVVQAEEAKQPEKVEFMWDDYHRQQLEEIAEEDDEDWDDDWDEDDEEGVEFIYKR | < 0.0135
obgE V328A (protein) MKFVDEASILVVAGDGGNGCVSFRREKYIPKGGPDGGDGGDGGDVWMEADENLNTLIDYRFEKSFRAERGQNGASRDCTGKRGKDVTIKVPVGTRVIDQGTGETMGDMTKHGQRLLVAKGGWHGLGNTRFKSSVNRTPRQKTNGTPGDKRELLLELMLLADVGMLGMPNAGKSTFIRAVSAAKPKVADYPFTTLVPSLGVVRMDNEKSFVVADIPGLIEGAAEGAGLGIRFLKHLERCRVLLHLIDIDPIDGTDPVENARIIISELEKYSQDLATKPRWLVFNKIDLLDKVEAEEKAKAIAEALGWEDKYYLISAASGLGVKDLCWDAMTFIIENPVVQAEEAKQPEKVEFMWDDYHRQQLEEIAEEDDEDWDDDWDEDDEEGVEFIYKR | < 0.0163
obgE V328Q (protein) MKFVDEASILVVAGDGGNGCVSFRREKYIPKGGPDGGDGGDGGDVWMEADENLNTLIDYRFEKSFRAERGQNGASRDCTGKRGKDVTIKVPVGTRVIDQGTGETMGDMTKHGQRLLVAKGGWHGLGNTRFKSSVNRTPRQKTNGTPGDKRELLLELMLLADVGMLGMPNAGKSTFIRAVSAAKPKVADYPFTTLVPSLGVVRMDNEKSFVVADIPGLIEGAAEGAGLGIRFLKHLERCRVLLHLIDIDPIDGTDPVENARIIISELEKYSQDLATKPRWLVFNKIDLLDKVEAEEKAKAIAEALGWEDKYYLISAASGLGVKDLCWDQMTFIIENPVVQAEEAKQPEKVEFMWDDYHRQQLEEIAEEDDEDWDDDWDEDDEEGVEFIYKR | < 0.0208
orn I104W (protein) MSANENNLIWIDLEMTGLDPERDRIIEIATLVTDANLNILAEGPTIAVHQSDEQLALMDDWNVRTHTASGLVERVKASTMGDREAELATLEFLKQWVPAGKSPWCGNSIGQDRRFLFKYMPELEAYFHYRYLDVSTLKELARRWKPEILDGFTKQGTHQAMDDIRESVAELAYYREHFIKL | < 0.0226
orn F127A (protein) MSANENNLIWIDLEMTGLDPERDRIIEIATLVTDANLNILAEGPTIAVHQSDEQLALMDDWNVRTHTASGLVERVKASTMGDREAELATLEFLKQWVPAGKSPICGNSIGQDRRFLFKYMPELEAYAHYRYLDVSTLKELARRWKPEILDGFTKQGTHQAMDDIRESVAELAYYREHFIKL | 0.0185 ± 0.006
orn F127P (protein) MSANENNLIWIDLEMTGLDPERDRIIEIATLVTDANLNILAEGPTIAVHQSDEQLALMDDWNVRTHTASGLVERVKASTMGDREAELATLEFLKQWVPAGKSPICGNSIGQDRRFLFKYMPELEAYPHYRYLDVSTLKELARRWKPEILDGFTKQGTHQAMDDIRESVAELAYYREHFIKL | < 0.00817
panB V199A (protein) MKPTTISLLQKYKQEKKRFATITAYDYSFAKLFADEGLNVMLVGDSLGMTVQGHDSTLPVTVADIAYHTAAVRRGAPNCLLLADLPFMAYATPEQAFENAATVMRAGANMVKIEGGEWLVETVQMLTERAVPVCGHLGLTPQSVNIFGGYKVQGRGDEAGDQLLSDALALEAAGAQLLVLECVPVELAKRITEALAIPAIGIGAGNVTDGQILVMHDAFGITGGHIPKFAKNFLAETGDIRAAVRQYMAEVESGVYPGEEHSFH | 0.00457 ± 0.0016
panB I200D (protein) MKPTTISLLQKYKQEKKRFATITAYDYSFAKLFADEGLNVMLVGDSLGMTVQGHDSTLPVTVADIAYHTAAVRRGAPNCLLLADLPFMAYATPEQAFENAATVMRAGANMVKIEGGEWLVETVQMLTERAVPVCGHLGLTPQSVNIFGGYKVQGRGDEAGDQLLSDALALEAAGAQLLVLECVPVELAKRITEALAIPVDGIGAGNVTDGQILVMHDAFGITGGHIPKFAKNFLAETGDIRAAVRQYMAEVESGVYPGEEHSFH | 0.114 ± 0.0054
panB M215A (protein) MKPTTISLLQKYKQEKKRFATITAYDYSFAKLFADEGLNVMLVGDSLGMTVQGHDSTLPVTVADIAYHTAAVRRGAPNCLLLADLPFMAYATPEQAFENAATVMRAGANMVKIEGGEWLVETVQMLTERAVPVCGHLGLTPQSVNIFGGYKVQGRGDEAGDQLLSDALALEAAGAQLLVLECVPVELAKRITEALAIPVIGIGAGNVTDGQILVAHDAFGITGGHIPKFAKNFLAETGDIRAAVRQYMAEVESGVYPGEEHSFH | < 0.0146
